This is an account of results in publication PMC6120942.

Amino acid sequences for entries named in this document (tags omitted). A change or cut given only in a name is not applied to a line headed by its entry. Chains listed by the source or under a name are the forms on record and can include a tag or linker.
UniProt P51532: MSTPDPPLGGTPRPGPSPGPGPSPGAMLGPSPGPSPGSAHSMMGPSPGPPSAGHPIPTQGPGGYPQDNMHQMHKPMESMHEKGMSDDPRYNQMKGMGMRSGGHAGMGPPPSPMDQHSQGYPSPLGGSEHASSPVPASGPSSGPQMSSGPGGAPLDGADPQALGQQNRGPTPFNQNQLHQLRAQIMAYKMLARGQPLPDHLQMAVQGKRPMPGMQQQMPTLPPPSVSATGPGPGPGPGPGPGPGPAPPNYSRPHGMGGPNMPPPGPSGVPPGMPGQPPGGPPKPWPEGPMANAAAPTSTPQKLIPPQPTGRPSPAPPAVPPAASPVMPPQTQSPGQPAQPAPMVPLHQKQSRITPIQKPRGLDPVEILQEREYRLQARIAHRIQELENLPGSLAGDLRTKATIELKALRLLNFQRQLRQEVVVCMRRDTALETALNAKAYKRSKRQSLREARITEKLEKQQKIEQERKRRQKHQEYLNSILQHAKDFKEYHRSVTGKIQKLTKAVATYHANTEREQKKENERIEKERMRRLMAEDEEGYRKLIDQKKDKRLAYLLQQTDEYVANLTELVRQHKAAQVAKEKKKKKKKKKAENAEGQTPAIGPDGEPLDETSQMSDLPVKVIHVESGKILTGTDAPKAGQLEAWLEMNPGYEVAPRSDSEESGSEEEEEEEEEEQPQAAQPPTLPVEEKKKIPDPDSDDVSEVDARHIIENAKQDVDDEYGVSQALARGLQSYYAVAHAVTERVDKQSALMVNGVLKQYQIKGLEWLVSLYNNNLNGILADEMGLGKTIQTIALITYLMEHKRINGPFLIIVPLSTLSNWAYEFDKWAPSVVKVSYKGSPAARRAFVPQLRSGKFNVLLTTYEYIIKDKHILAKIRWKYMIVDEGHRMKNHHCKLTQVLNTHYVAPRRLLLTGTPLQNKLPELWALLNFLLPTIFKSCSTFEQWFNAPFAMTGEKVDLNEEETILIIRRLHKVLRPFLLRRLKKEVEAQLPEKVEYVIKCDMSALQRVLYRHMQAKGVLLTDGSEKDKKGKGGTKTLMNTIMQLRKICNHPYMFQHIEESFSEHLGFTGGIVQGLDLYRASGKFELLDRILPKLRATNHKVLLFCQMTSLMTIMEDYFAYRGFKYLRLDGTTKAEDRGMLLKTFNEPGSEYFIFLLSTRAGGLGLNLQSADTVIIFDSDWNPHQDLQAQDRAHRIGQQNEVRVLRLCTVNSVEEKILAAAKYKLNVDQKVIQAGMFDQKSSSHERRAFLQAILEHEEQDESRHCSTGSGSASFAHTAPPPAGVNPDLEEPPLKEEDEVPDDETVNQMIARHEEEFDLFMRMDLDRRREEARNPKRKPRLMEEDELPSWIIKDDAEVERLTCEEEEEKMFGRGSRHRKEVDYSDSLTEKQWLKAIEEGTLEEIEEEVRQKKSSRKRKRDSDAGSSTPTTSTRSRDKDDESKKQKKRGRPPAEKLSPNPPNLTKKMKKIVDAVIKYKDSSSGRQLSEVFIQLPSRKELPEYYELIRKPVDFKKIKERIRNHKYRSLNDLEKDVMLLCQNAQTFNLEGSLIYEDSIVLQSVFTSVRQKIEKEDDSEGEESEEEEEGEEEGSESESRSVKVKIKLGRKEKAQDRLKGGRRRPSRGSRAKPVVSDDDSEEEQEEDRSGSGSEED
GST-Brg1 (1–104aa) S31A/S35A (P51532, form named): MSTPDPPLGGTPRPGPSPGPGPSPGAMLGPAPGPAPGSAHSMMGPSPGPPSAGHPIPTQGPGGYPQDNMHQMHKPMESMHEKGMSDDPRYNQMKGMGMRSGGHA
UniProt Q969H0: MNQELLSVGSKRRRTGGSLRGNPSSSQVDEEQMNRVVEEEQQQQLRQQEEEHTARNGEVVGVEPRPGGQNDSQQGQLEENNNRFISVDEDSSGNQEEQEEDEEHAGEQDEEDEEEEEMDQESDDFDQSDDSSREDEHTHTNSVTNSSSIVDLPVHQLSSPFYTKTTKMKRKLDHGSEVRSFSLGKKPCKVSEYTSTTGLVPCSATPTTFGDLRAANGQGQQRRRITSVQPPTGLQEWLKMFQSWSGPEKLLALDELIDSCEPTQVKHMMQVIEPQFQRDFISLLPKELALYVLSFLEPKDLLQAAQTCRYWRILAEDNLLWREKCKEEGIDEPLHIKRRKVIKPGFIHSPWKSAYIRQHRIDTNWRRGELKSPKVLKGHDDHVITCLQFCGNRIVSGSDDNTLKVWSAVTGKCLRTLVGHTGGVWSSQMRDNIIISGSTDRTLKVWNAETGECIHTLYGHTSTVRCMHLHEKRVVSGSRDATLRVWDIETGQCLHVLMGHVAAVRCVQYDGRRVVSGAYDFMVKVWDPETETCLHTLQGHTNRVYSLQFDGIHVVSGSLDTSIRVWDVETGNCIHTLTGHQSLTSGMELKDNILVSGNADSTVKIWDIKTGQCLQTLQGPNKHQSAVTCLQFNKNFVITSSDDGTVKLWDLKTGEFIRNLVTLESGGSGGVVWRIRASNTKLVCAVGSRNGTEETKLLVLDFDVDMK
FBW7β (Q969H0-2, form named): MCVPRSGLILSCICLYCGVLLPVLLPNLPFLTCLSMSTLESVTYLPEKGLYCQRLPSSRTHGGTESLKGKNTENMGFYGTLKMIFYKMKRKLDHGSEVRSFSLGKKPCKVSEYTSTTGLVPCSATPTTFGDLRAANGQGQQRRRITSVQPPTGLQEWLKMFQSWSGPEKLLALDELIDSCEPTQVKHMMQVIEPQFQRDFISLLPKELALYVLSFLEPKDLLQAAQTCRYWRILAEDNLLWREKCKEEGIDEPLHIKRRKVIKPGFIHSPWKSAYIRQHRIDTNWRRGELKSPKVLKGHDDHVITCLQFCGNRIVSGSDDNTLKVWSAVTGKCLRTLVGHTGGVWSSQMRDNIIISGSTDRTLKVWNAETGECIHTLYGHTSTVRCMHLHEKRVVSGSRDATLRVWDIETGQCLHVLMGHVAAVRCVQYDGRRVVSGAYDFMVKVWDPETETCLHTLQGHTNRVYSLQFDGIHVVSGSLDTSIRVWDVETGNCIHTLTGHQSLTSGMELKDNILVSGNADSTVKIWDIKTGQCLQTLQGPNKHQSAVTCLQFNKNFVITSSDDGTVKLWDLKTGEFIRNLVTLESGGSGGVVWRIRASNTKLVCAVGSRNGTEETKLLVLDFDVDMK
FBW7γ (Q969H0-4, form named): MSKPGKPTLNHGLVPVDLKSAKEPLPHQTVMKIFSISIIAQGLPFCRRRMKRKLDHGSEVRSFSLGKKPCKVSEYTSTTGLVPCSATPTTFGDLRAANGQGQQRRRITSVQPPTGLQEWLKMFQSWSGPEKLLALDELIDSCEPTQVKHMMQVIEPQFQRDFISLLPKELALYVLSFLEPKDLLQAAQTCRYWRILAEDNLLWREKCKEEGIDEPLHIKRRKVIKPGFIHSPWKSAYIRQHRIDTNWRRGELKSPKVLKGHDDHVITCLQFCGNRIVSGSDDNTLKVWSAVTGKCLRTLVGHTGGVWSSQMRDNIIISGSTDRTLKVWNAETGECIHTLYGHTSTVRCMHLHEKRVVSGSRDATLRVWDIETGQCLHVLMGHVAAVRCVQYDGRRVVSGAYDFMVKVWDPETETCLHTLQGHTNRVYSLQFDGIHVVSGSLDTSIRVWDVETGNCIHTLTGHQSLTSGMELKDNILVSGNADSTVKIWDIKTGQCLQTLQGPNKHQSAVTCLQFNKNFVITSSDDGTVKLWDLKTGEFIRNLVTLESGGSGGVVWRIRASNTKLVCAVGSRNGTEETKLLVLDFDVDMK

These are yes or no findings as the source states them, for the method shown. Binding seen in cells or lysates may run through a third protein. Some entries that bind do so weakly or less than the wild type.

The target in assay [1] is Flag-Brg1 (UniProt P51532). In words: co-IP; 293T cells transfected with tagged constructs; lysis in EBC buffer (50 mM Tris pH 8.0, 120 mM NaCl, 0.5% NP-40), 4 °C, washes in NETN buffer; in Fig. 2d also with the CK1 inhibitor IC261 (20 μM, 8 h; interaction decreased).
Assay [2] addresses Flag-Brg1 (UniProt P51532). Put plainly: co-IP; FBW7 isoforms α, β, γ tested with Brg1 (Supplementary Figure 2b); cells and constructs not given.
Assay [3] concerns the target GST-Brg1 (1–104aa) S31A/S35A (UniProt P51532). In words: pull-down; bacterially purified GST-Brg1 (1–104aa) proteins, in vitro kinase reaction with CK1, then pull-down of HA-FBW7; GST as negative control; only the target purified.
Assay [4] addresses endogenous Brg1 (human (endogenous in MKN45)) (UniProt P51532). In words: co-IP; endogenous proteins in MKN45 cells, anti-Brg1 antibody (sc-17796), mouse IgG as control; also after etoposide or cisplatin treatment (binding increased).

Take FBW7 R465H (from UniProt Q969H0 1-707): the binding entry with Flag-Brg1 [1] was “no binding”.

With FBW7 R479Q (from UniProt Q969H0 1-707), the binding entry with Flag-Brg1 [1] is “no binding”.

Take FBW7 R505C (from UniProt Q969H0 1-707): the binding result with Flag-Brg1 [1] is recorded as “no binding”.

FBW7α (from UniProt Q969H0-1 1-707): the binding entry with Flag-Brg1 [2] was “binds”.

In the case of FBW7β (from UniProt Q969H0-2 1-627), the binding result with Flag-Brg1 [2] is given as “no binding”.

Consider FBW7γ (from UniProt Q969H0-4 1-589), for which, in the assay with Flag-Brg1 [2], the binding result was “no binding”.

In the case of HA-FBW7 (from UniProt Q969H0 1-707), the binding result is reported as “binds” with Flag-Brg1 [1] and “no binding” in assay [3].

Regarding “endogenous FBW7 (from UniProt Q969H0 1-707)”, the binding result in assay [4] is recorded as “binds”.
